{"source": "ChEMBL document CHEMBL4888484", "about": "“Replenishing the malaria drug discovery pipeline: Screening and hit evaluation of the MMV Hit Generation Library 1 (HGL1) against asexual blood stage Plasmodium falciparum ,using a nano luciferase reporter read-out” (2022)", "note": "About 540 (0.36%) of roughly 150,000 compounds showed an effect of 50% or more. The list shows a part of the results.", "data": [{"test_system": "Plasmodium falciparum", "assay": "Primary screen in NF54 nanoGlo assay, in single point, at 2uM, 72h; a lower Z score goes with more inhibition", "type": "functional, Erythrocyte", "details": "timepoint 72 hour", "units": {"% Inhibition": "%"}, "values": [{"compound": "COc1ccc2c(c1)[C@H]1OCCC[C@H]1C(c1cc(Cl)c(OC)c(OC)c1)N2", "note": "(stereo partly drawn)", "% Inhibition": -7, "Z score": 1.06}, {"compound": "CCOC(=O)[C@H](CN(C)C)Oc1ccc(Cl)cc1", "% Inhibition": -13, "Z score": 2.58}, {"compound": "Cc1n[nH]c(CN2CCCC[C@H]2C(=O)Nc2cccc(-c3nnc(C)s3)c2)n1", "% Inhibition": -13, "Z score": 1.85}, {"compound": "CN1CCN(Cc2cnc3ncccn23)c2ccccc21", "% Inhibition": 13, "Z score": -1.8}, {"compound": "COc1ccccc1CCC(=O)N1CC[C@@H](NC(=O)c2cccnc2)[C@@H](CO)C1", "% Inhibition": -7, "Z score": 0.8}, {"compound": "CCn1cnnc1CNS(=O)(=O)C[C@H](Cc1ccccc1)OC", "% Inhibition": -2, "Z score": 0.29}, {"compound": "CNc1nc(N[C@@H]2[C@@H]3CCO[C@@H]3[C@H]2NC(C)=O)ncc1F", "% Inhibition": -1, "Z score": 0.12}, {"compound": "CC(C)c1oncc1NC(=O)CN1CCOCC1", "% Inhibition": -5, "Z score": 0.67}, {"compound": "Cc1cc(NC(=O)Cn2ccnn2)n([C@@H](C)C2CC2)n1", "% Inhibition": -11, "Z score": 1.49}, {"compound": "CN(CC1(O)CCCCCC1)C(=O)NC(CC1CCOC1)c1ccccc1", "note": "(stereo not drawn)", "% Inhibition": -8, "Z score": 1.18}, {"compound": "CC(=O)N[C@H]1CCN(S(=O)(=O)c2sccc2Cl)C1", "% Inhibition": 0, "Z score": -0.08}, {"compound": "O=C1C[C@@H](C(=O)Nc2ccc(OC(F)(F)F)cc2)n2c(nnc2-c2ccco2)N1", "% Inhibition": -9, "Z score": 1.72}, {"compound": "Cc1cc(CC(=O)N2CCC(c3ncncc3C)CC2)on1", "% Inhibition": -21, "Z score": 4.14}, {"compound": "O=C(NC1CCCCCCC1)c1ccc2ccccc2n1", "% Inhibition": -2, "Z score": 0.26}, {"compound": "C[C@H]1CCCN(CC2=NS(=O)(=O)c3ccccc3N2)C1", "% Inhibition": 1, "Z score": -0.21}, {"compound": "O=C(c1cc(O)ncn1)N1CC[C@H](c2nccc(C(F)(F)F)n2)C1", "% Inhibition": -12, "Z score": 1.31}, {"compound": "Cc1nc(C)n(C2CN(C(=O)COc3ccc(Cl)cc3C)C2)n1", "% Inhibition": 2, "Z score": -0.33}, {"compound": "CC(C)c1cncnc1N[C@H]1CN(CCCO)C[C@@H]1C1CC1", "% Inhibition": 4, "Z score": -0.64}, {"compound": "COCc1noc(CN(C)Cc2c[nH]nc2C)n1", "% Inhibition": -7, "Z score": 1.21}, {"compound": "CCN(CC)S(=O)(=O)c1ccc(N2CCOCC2)c(NC(=O)c2ccc(O)nc2)c1", "% Inhibition": -7, "Z score": 1.2}, {"compound": "COCCNc1ccc(-c2nc(-c3ccc(C)cc3)no2)nn1", "% Inhibition": -9, "Z score": 1.02}, {"compound": "Cc1ccccc1NS(=O)(=O)c1ccc(-c2ccc(O)nn2)o1", "% Inhibition": 8, "Z score": -1.06}, {"compound": "O=C(CN1C(=O)COc2ccc(Cl)cc21)N1CCN(c2ccc(F)cc2)CC1", "% Inhibition": -3, "Z score": 0.5}, {"compound": "COc1ccc(NC(=O)Cc2coc3cc(C)c(C(C)C)cc23)cc1S(=O)(=O)N1CCCCC1", "% Inhibition": -11, "Z score": 1.34}, {"compound": "CCN1CCN(C(=O)c2ccc(C)n2C(F)F)[C@@H](C)C1=O", "% Inhibition": -7, "Z score": 1.34}, {"compound": "CCc1cnc(-c2cnn(CC(=O)Nc3c(CC)c(CC)nn3C)c2)nc1", "% Inhibition": -5, "Z score": 0.81}, {"compound": "COC[C@H]1CCN(c2nc(-c3ccccn3)nc3c2CCNCC3)C1", "% Inhibition": -2, "Z score": 0.41}, {"compound": "C[C@H]1CCc2c(cc(-c3ccccc3)n2-c2ccc(C(=O)NCc3cccc(Cl)c3)cc2)C1", "% Inhibition": -13, "Z score": 2.54}, {"compound": "O=C(CN1CCc2nc(NC(=O)c3ccccn3)sc2C1)Nc1ccc(F)cc1F", "% Inhibition": -1, "Z score": 0.21}, {"compound": "CCc1cnc(NC(=O)NC[C@H]2CN(C)C[C@@H]2c2ccccc2)s1", "% Inhibition": -11, "Z score": 1.47}, {"compound": "CCN(C(=O)c1nccn1C)[C@H]1CCCC[C@@H]1O", "% Inhibition": -22, "Z score": 1.97}, {"compound": "O=C(Cc1nnc2ccc(C(=O)Nc3ccccc3)cn12)Nc1ccc(F)cc1", "% Inhibition": 32, "Z score": -0.7}, {"compound": "CS(=O)(=O)N1CCN(C(=O)N2CC[C@H](n3cc(C4CC4)nn3)C2)C1=O", "% Inhibition": -12, "Z score": 1.45}, {"compound": "O=C(Nc1cccc2c1COCC2)N[C@H]1CCO[C@@H]1c1ccnn1CC1CC1", "% Inhibition": -2, "Z score": 0.21}, {"compound": "O=S(=O)(C[C@H]1CCCCO1)Nc1ccc(Br)c(O)c1", "% Inhibition": 11, "Z score": -1.07}, {"compound": "COc1ccc(C(=O)CNC(=O)Cc2c(F)cccc2F)cc1", "% Inhibition": -1, "Z score": 0.21}, {"compound": "Cc1oc(C)c(C(=O)Nc2cccc(S(=O)(=O)N3CCCC3)c2)c1C", "% Inhibition": -7, "Z score": 0.82}, {"compound": "COc1cc(C(=O)N(CCO)Cc2cccs2)ccc1OC1CCN(C)CC1", "% Inhibition": -4, "Z score": 0.83}, {"compound": "CN(OCc1ccccc1)C(=O)C(=O)Nc1ccc(F)cc1C#N", "% Inhibition": 5, "Z score": -0.56}, {"compound": "CC[C@H](NS(=O)(=O)c1cc(Cl)cnc1N)c1ccncc1", "% Inhibition": -3, "Z score": 0.43}, {"compound": "CCN1CCC[C@H](NC(=O)c2ccccc2-c2nnc(C)o2)C1", "% Inhibition": -11, "Z score": 1.55}, {"compound": "Cn1cnnc1NC(=O)CCc1ccccc1", "% Inhibition": 7, "Z score": -1.04}, {"compound": "CC1(C)C[C@@H]1C(=O)N(CCCn1ccnc1)Cc1cccnc1", "% Inhibition": -8, "Z score": 1.5}, {"compound": "Nc1c(NCCn2ccnc2)ncnc1-n1cccn1", "% Inhibition": -6, "Z score": 0.7}, {"compound": "Cc1ccsc1[C@H](C)NCc1ccc(Cn2ccnc2)cc1", "% Inhibition": 2, "Z score": -0.22}, {"compound": "CC(C)CC(NC(=O)c1csc(C2CCCO2)n1)c1ccccn1", "note": "(stereo not drawn)", "% Inhibition": -8, "Z score": 1.03}, {"compound": "C=CCc1cc(CN(C[C@H]2CCC(=O)N2)C(C)C)ccc1OC", "% Inhibition": 3, "Z score": -0.47}, {"compound": "Cc1cc(C)c2c(c1)N(Cc1nnnn1CC(F)(F)F)CCO2", "% Inhibition": 3, "Z score": -0.39}, {"compound": "CCc1ccc(N2CCN(C(=O)CN3C(=O)NC4(CCCCC4C)C3=O)CC2)cc1", "note": "(stereo not drawn)", "% Inhibition": -4, "Z score": 0.5}, {"compound": "Cc1cc(C(=O)N(Cc2ccccc2)CC2(C)CCOCC2)[nH]n1", "% Inhibition": -13, "Z score": 1.95}, {"compound": "CN(c1nnc(-c2cccn2C)n1C[C@H]1CCOC1)C1CC1", "% Inhibition": -8, "Z score": 1.48}, {"compound": "COc1ccc(F)cc1C(=O)C(=O)N[C@H]1CC[C@@H](C(=O)N2CCCC2)C1", "% Inhibition": -3, "Z score": 0.27}, {"compound": "Cc1ncoc1CNC(=O)c1ncn(C(C)(C)C)n1", "% Inhibition": 5, "Z score": -0.63}, {"compound": "COC(=O)c1cccc(-c2nccn2C[C@H](O)c2ccccc2)c1", "% Inhibition": -8, "Z score": 1.57}]}]}
